Test results reported in the supplement of paper PMC12217912.
The other results are listed elsewhere or left out. The full chains were built here from the parent and the listed change. Values near 0.05 are background.

B1: TEV protease; numbered along this chain (parent)
chain: MGESLFKGPRDYNPISSSICHLTNESDGHTTSLYGIGFGPFIITNKHLFRRNNGTLVVQSLHGVFKVKDTTTLQQHLVDGRDMIIIRMPKDFPPFPQKLKFREPQREERICLVTTNFQTKSMSSMVSDTSCTFPSGDGIFWKHWIQTKDGQCGSPLVSTRDGFIVGIHSASNFTNTNNYFTSVPKNFMELLTNQEAQQWVSGWRLNADSVLWGGHKVFMVKPEEPFQPVKEATQL

Variants of: B1
Test: raw area under fraction-flipped curve 0-4 h after induction (AUC4h, not background-subtracted), DNA-recorder readout of cleavage of the substrate (dimensionless); higher = more cleavage of the substrate by the protease variant
Conditions: temperature: 34 °C; time window: 0-4 h after rhamnose induction
Description: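 In vivo DNA recorder in E. coli TOP10(DE3) ΔrhaA at 34 °C. Each TEVp single-site mutant (parent TEVp 0) is paired with a single-site variant of the 7-mer TEVs (canonical ENLYFQ|S). The substrate sits between flexible linkers in a Bxb1-sfGFP-TEVs-SsrA fusion, so cleavage stabilises Bxb1 and speeds flipping of a recombination array, read by NGS. The value is the raw area under the fraction-flipped curve over 0-4 h after rhamnose induction (AUC4h), with ≥20 reads per time point. It is not background-subtracted; inactive controls average about 0.047.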
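Note: Bxb1 expression induced with 0.2% (w/v) L-rhamnose at OD600 near 0.5, cultures sampled hourly, flipped fraction per protease–substrate barcode pair counted by paired-end Illumina sequencing.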

Row | Variant | area with substrate ENLAFQS | area with substrate ENLCFQS | area with substrate ENLDFQS | area with substrate ENLEFQS | area with substrate ENLFFQS | area with substrate ENLHFQS | area with substrate ENLKFQS | area with substrate ENLLFQS | area with substrate ENLNFQS | area with substrate ENLPFQS | area with substrate ENLQFQS | area with substrate ENLRFQS | area with substrate ENLSFQS | area with substrate ENLVFQS | area with substrate ENLWFQS | area with substrate ENLIFQS | area with substrate ENLMFQS | area with substrate ENLGFQS | area with substrate ENLTFQS
1 | E103V | 0.0849 | 0.065 | 0.0608 | 0.0725 | 0.0834 | 0.0693 | 0.0729 | 0.0638 | 0.0701 | 0.0562 | 0.0691 | 0.0683 | 0.0729 | 0.056 | 0.0665 |  |  |  | 
2 | E103H | 0.0519 |  | 0.0794 | 0.0537 | 0.0834 |  | 0.0627 |  | 0.0564 | 0.054 | 0.0791 | 0.0686 | 0.0574 | 0.0771 |  | 0.066 | 0.0606 |  | 
3 | T70H | 0.0661 | 0.0813 | 0.0675 |  |  |  |  | 0.054 | 0.066 |  | 0.056 | 0.0711 | 0.0517 |  |  |  |  | 0.064 | 0.0661
4 | T70Q | 0.0603 |  | 0.0593 | 0.0597 | 0.0737 | 0.0578 | 0.0663 | 0.0542 | 0.0664 |  |  | 0.0572 | 0.0395 |  | 0.0647 |  | 0.0704 |  | 
5 | Q105Y | 0.0712 |  | 0.0602 |  | 0.0885 | 0.0687 | 0.0792 |  | 0.0616 | 0.0623 |  | 0.0795 | 0.0666 |  | 0.0517 |  |  | 0.0683 | 
6 | M122N | 0.0609 | 0.0484 | 0.059 | 0.0733 | 0.0878 | 0.0677 | 0.0767 | 0.06 | 0.051 | 0.0552 |  | 0.0736 |  |  |  |  |  |  | 
7 | K142P | 0.0515 | 0.052 | 0.0658 | 0.0594 | 0.066 | 0.0552 | 0.0716 |  | 0.0622 | 0.0546 | 0.0644 |  | 0.0695 |  | 0.046 | 0.0511 | 0.0603 | 0.0692 | 
8 | K142R | 0.0723 |  | 0.0549 | 0.0768 | 0.0755 |  | 0.0815 |  | 0.0914 |  |  | 0.0681 | 0.0392 |  | 0.0541 |  |  |  | 
9 | G136Y | 0.0691 | 0.0769 | 0.0641 | 0.0838 | 0.0616 |  |  | 0.0777 | 0.0569 | 0.0492 | 0.0328 | 0.0608 |  |  | 0.0612 |  | 0.0816 |  | 
10 | T114W | 0.0382 | 0.0756 | 0.0624 | 0.0594 | 0.0728 | 0.0552 | 0.0835 |  | 0.0616 | 0.0657 |  | 0.0831 | 0.0642 | 0.0264 |  |  |  | 0.057 | 
11 | S130P | 0.0416 | 0.0389 | 0.0462 | 0.0268 | 0.0502 | 0.0416 | 0.0368 | 0.0423 |  | 0.0539 | 0.0494 | 0.0425 | 0.0478 | 0.0625 | 0.05 | 0.0388 |  |  | 
12 | S130I | 0.0704 |  |  | 0.0613 | 0.0746 | 0.084 | 0.0829 |  |  |  |  |  | 0.0765 | 0.0842 |  |  | 0.0628 |  | 
13 | D79A | 0.0795 |  | 0.0746 |  | 0.088 | 0.0709 | 0.0853 | 0.0763 |  | 0.0701 |  | 0.0703 |  |  | 0.0636 |  |  |  | 
14 | E107H | 0.0592 |  |  |  | 0.0801 | 0.0838 |  |  | 0.0641 | 0.0608 |  |  | 0.0616 |  |  |  |  |  | 
15 | E107G | 0.0653 |  | 0.0642 | 0.0683 | 0.077 | 0.0966 | 0.077 |  |  |  | 0.0544 |  | 0.0674 |  | 0.068 |  |  | 0.0785 | 0.0619
